Measured values published in the supplement of paper PMC12217912.
Some of the results follow. The full chains were built here from the parent and the listed change. Values near 0.05 are background.

B1: TEV protease; numbered along this chain (parent)
chain: MGESLFKGPRDYNPISSSICHLTNESDGHTTSLYGIGFGPFIITNKHLFRRNNGTLVVQSLHGVFKVKDTTTLQQHLVDGRDMIIIRMPKDFPPFPQKLKFREPQREERICLVTTNFQTKSMSSMVSDTSCTFPSGDGIFWKHWIQTKDGQCGSPLVSTRDGFIVGIHSASNFTNTNNYFTSVPKNFMELLTNQEAQQWVSGWRLNADSVLWGGHKVFMVKPEEPFQPVKEATQL

Variants of: B1
Experiment: raw area under fraction-flipped curve 0-4 h after induction (AUC4h, not background-subtracted), DNA-recorder readout of cleavage of the substrate (dimensionless); higher = more cleavage of the substrate by the protease variant
Conditions: temperature: 34 °C; time window: 0-4 h after rhamnose induction
Description: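 In vivo DNA recorder in E. coli TOP10(DE3) ΔrhaA at 34 °C. Each TEVp single-site mutant (parent TEVp 0) is paired with a single-site variant of the 7-mer TEVs (canonical ENLYFQ|S). The substrate sits between flexible linkers in a Bxb1-sfGFP-TEVs-SsrA fusion, so cleavage stabilises Bxb1 and speeds flipping of a recombination array, read by NGS. The value is the raw area under the fraction-flipped curve over 0-4 h after rhamnose induction (AUC4h), with ≥20 reads per time point. It is not background-subtracted; inactive controls average about 0.047.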
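Note: Bxb1 expression induced with 0.2% (w/v) L-rhamnose at OD600 near 0.5, cultures sampled hourly, flipped fraction per protease–substrate barcode pair counted by paired-end Illumina sequencing.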

Variant: MGESLFKGPRDYNPISSSICHLTNESDGHTTSLYGIGFGPFIITNKHLFRRNNGTLVVQSLHGVFKVKDTTTLQQHLVDGRIMIIIRMPKDFPPFPQKLKFREPQREERICLVTTNFQTKSMSSMVSDTSCTFPSGDGIFWKHWIQTKDGQCGSPLVSTRDGFIVGIHSASNFTNTNNYFTSVPKNFMELLTNQEAQQWVSGWRLNADSVLWGGHKVFMVKPEEPFQPVKEATQL [D82I]
- area with substrate ENLCFQS: 0.0558
- area with substrate ENLLFQS: 0.0496
- area with substrate ENLMFQS: 0.0386
- area with substrate ENLNFQS: 0.0657
- area with substrate ENLRFQS: 0.0493
- area with substrate ENLSFQS: 0.0418
- area with substrate ENLTFQS: 0.0633

Variant: MGESLFKGPRDYNPISSSICHLTNESDGHTTSLYGIGFGPFIITNKHLFRRNNGTLVVQSLHGVFKVKDTTTLQQHLVDGRDMIGIRMPKDFPPFPQKLKFREPQREERICLVTTNFQTKSMSSMVSDTSCTFPSGDGIFWKHWIQTKDGQCGSPLVSTRDGFIVGIHSASNFTNTNNYFTSVPKNFMELLTNQEAQQWVSGWRLNADSVLWGGHKVFMVKPEEPFQPVKEATQL [I85G]
- area with substrate ENLCFQS: 0.0523
- area with substrate ENLDFQS: 0.0553
- area with substrate ENLFFQS: 0.0498
- area with substrate ENLHFQS: 0.0562
- area with substrate ENLIFQS: 0.0578
- area with substrate ENLKFQS: 0.0567
- area with substrate ENLLFQS: 0.0365
- area with substrate ENLNFQS: 0.0567
- area with substrate ENLPFQS: 0.0538
- area with substrate ENLQFQS: 0.0459
- area with substrate ENLRFQS: 0.0453
- area with substrate ENLSFQS: 0.0583
- area with substrate ENLTFQS: 0.0509

Variant: MGESLFKGPRDYNPISSSICHLTNESDGHTTSLYGIGFGPFIITNKHLFRRNNGTLVVQSLHGVFKVKDTTTLQQHLVDGRDMIIARMPKDFPPFPQKLKFREPQREERICLVTTNFQTKSMSSMVSDTSCTFPSGDGIFWKHWIQTKDGQCGSPLVSTRDGFIVGIHSASNFTNTNNYFTSVPKNFMELLTNQEAQQWVSGWRLNADSVLWGGHKVFMVKPEEPFQPVKEATQL [I86A]
- area with substrate ENLCFQS: 0.0613
- area with substrate ENLFFQS: 0.067
- area with substrate ENLHFQS: 0.0461
- area with substrate ENLKFQS: 0.0602
- area with substrate ENLMFQS: 0.0404
- area with substrate ENLNFQS: 0.0555
- area with substrate ENLSFQS: 0.0668
- area with substrate ENLTFQS: 0.0545

Variant: MGESLFKGPRDYNPISSSICHLTNESDGHTTSLYGIGFGPFIITNKHLFRRNNGTLVVQSLHGVFKVKDTTTLQQHLVDGRDMIIIRMPKDFPPFPQKLMFREPQREERICLVTTNFQTKSMSSMVSDTSCTFPSGDGIFWKHWIQTKDGQCGSPLVSTRDGFIVGIHSASNFTNTNNYFTSVPKNFMELLTNQEAQQWVSGWRLNADSVLWGGHKVFMVKPEEPFQPVKEATQL [K100M]
- area with substrate ENLCFQS: 0.0719
- area with substrate ENLHFQS: 0.0691
- area with substrate ENLIFQS: 0.0895
- area with substrate ENLLFQS: 0.0814
- area with substrate ENLNFQS: 0.0645
- area with substrate ENLPFQS: 0.0036
- area with substrate ENLVFQS: 0.0775

Variant: MGESLFKGPRDYNPISSSICHLTNESDGHTTSLYGIGFGPFIITNKHLFRRNNGTLVVQSLHGVFKVKDTTTLQQHLVDGRDMIIIRMPKDFPPFPQKLKFREPQLEERICLVTTNFQTKSMSSMVSDTSCTFPSGDGIFWKHWIQTKDGQCGSPLVSTRDGFIVGIHSASNFTNTNNYFTSVPKNFMELLTNQEAQQWVSGWRLNADSVLWGGHKVFMVKPEEPFQPVKEATQL [R106L]
- area with substrate ENLCFQS: 0.0849
- area with substrate ENLDFQS: 0.0672
- area with substrate ENLEFQS: 0.0627
- area with substrate ENLFFQS: 0.103
- area with substrate ENLHFQS: 0.0773
- area with substrate ENLKFQS: 0.0816
- area with substrate ENLLFQS: 0.0707
- area with substrate ENLNFQS: 0.0722
- area with substrate ENLPFQS: 0.0601
- area with substrate ENLRFQS: 0.0577
- area with substrate ENLVFQS: 0.103

Variant: MGESLFKGPRDYNPISSSICHLTNESDGHTTSLYGIGFGPFIITNKHLFRRNNGTLVVQSLHGVFKVKDTTTLQQHLVDGRDMIIIRMPKDFPPFPQKLKFREPQRFERICLVTTNFQTKSMSSMVSDTSCTFPSGDGIFWKHWIQTKDGQCGSPLVSTRDGFIVGIHSASNFTNTNNYFTSVPKNFMELLTNQEAQQWVSGWRLNADSVLWGGHKVFMVKPEEPFQPVKEATQL [E107F]
- area with substrate ENLCFQS: 0.097
- area with substrate ENLDFQS: 0.0628
- area with substrate ENLEFQS: 0.0537
- area with substrate ENLFFQS: 0.0624
- area with substrate ENLHFQS: 0.0612
- area with substrate ENLKFQS: 0.059
- area with substrate ENLPFQS: 0.0451
- area with substrate ENLWFQS: 0.06

Variant: MGESLFKGPRDYNPISSSICHLTNESDGHTTSLYGIGFGPFIITNKHLFRRNNGTLVVQSLHGVFKVKDTTTLQQHLVDGRDMIIIRMPKDFPPFPQKLKFREPQREERPCLVTTNFQTKSMSSMVSDTSCTFPSGDGIFWKHWIQTKDGQCGSPLVSTRDGFIVGIHSASNFTNTNNYFTSVPKNFMELLTNQEAQQWVSGWRLNADSVLWGGHKVFMVKPEEPFQPVKEATQL [I110P]
- area with substrate ENLCFQS: 0.0694
- area with substrate ENLDFQS: 0.0517
- area with substrate ENLFFQS: 0.0542
- area with substrate ENLHFQS: 0.0726
- area with substrate ENLIFQS: 0.0516
- area with substrate ENLKFQS: 0.0609
- area with substrate ENLNFQS: 0.0424
- area with substrate ENLRFQS: 0.056
- area with substrate ENLSFQS: 0.0592

Variant: MGESLFKGPRDYNPISSSICHLTNESDGHTTSLYGIGFGPFIITNKHLFRRNNGTLVVQSLHGVFKVKDTTTLQQHLVDGRDMIIIRMPKDFPPFPQKLKFREPQREERICLVDTNFQTKSMSSMVSDTSCTFPSGDGIFWKHWIQTKDGQCGSPLVSTRDGFIVGIHSASNFTNTNNYFTSVPKNFMELLTNQEAQQWVSGWRLNADSVLWGGHKVFMVKPEEPFQPVKEATQL [T114D]
- area with substrate ENLCFQS: 0.076
- area with substrate ENLFFQS: 0.0689
- area with substrate ENLKFQS: 0.0663
- area with substrate ENLNFQS: 0.0721
- area with substrate ENLPFQS: 0.0459
- area with substrate ENLSFQS: 0.0412
- area with substrate ENLVFQS: 0.0729

Variant: MGESLFKGPRDYNPISSSICHLTNESDGHTTSLYGIGFGPFIITNKHLFRRNNGTLVVQSLHGVFKVKDTTTLQQHLVDGRDMIIIRMPKDFPPFPQKLKFREPQREERICLVTVNFQTKSMSSMVSDTSCTFPSGDGIFWKHWIQTKDGQCGSPLVSTRDGFIVGIHSASNFTNTNNYFTSVPKNFMELLTNQEAQQWVSGWRLNADSVLWGGHKVFMVKPEEPFQPVKEATQL [T115V]
- area with substrate ENLCFQS: 0.0708
- area with substrate ENLDFQS: 0.0584
- area with substrate ENLEFQS: 0.0792
- area with substrate ENLFFQS: 0.0879
- area with substrate ENLIFQS: 0.0913
- area with substrate ENLKFQS: 0.11
- area with substrate ENLLFQS: 0.0681
- area with substrate ENLMFQS: 0.0758
- area with substrate ENLNFQS: 0.0618
- area with substrate ENLPFQS: 0.0627
- area with substrate ENLWFQS: 0.0843

Variant: MGESLFKGPRDYNPISSSICHLTNESDGHTTSLYGIGFGPFIITNKHLFRRNNGTLVVQSLHGVFKVKDTTTLQQHLVDGRDMIIIRMPKDFPPFPQKLKFREPQREERICLVTTNFQTMSMSSMVSDTSCTFPSGDGIFWKHWIQTKDGQCGSPLVSTRDGFIVGIHSASNFTNTNNYFTSVPKNFMELLTNQEAQQWVSGWRLNADSVLWGGHKVFMVKPEEPFQPVKEATQL [K120M]
- area with substrate ENLCFQS: 0.0966
- area with substrate ENLDFQS: 0.0702
- area with substrate ENLEFQS: 0.0551
- area with substrate ENLFFQS: 0.0614
- area with substrate ENLHFQS: 0.0557
- area with substrate ENLIFQS: 0.0365
- area with substrate ENLKFQS: 0.0857
- area with substrate ENLMFQS: 0.0779
- area with substrate ENLNFQS: 0.0681
- area with substrate ENLPFQS: 0.0644
- area with substrate ENLSFQS: 0.0478
- area with substrate ENLWFQS: 0.0486
